Data: US10494602B1, “Functional astrocytes and cortical neurons from induced pluripotent stem cells and methods of use thereof” (The Board of Trustees of the Leland Stanford Junior …, priority 2015, dated 2019)

System: spontaneous synaptic activity (EPSCs) of hCS neurons
Conditions: NBQX (25 μM) and D-AP5 (50 μM) together; at -70 mV; n=11 cells, P=0.001

SMILES: NS(=O)(=O)c1cccc2c1c([N+](=O)[O-])cc1nc(O)c(O)nc12 [NBQX]
- frequency of EPSCs: abolished

SMILES: NC(CCCP(=O)(O)O)C(=O)O [D-AP5]
- frequency of EPSCs: abolished
